Experimental data taken from the supplement of paper PMC3334620.
Whole data set: some 33,000 sequences, median “E-score (-0.5 to 0.5)” near -0.013, cut for the highest 2% near 0.3. The list shows a part of the results.

These sequences were tested against T1, Msn1 (UniProt P22148) (assay: PBM E-score (8-mer binding enrichment) (E-score (-0.5 to 0.5)); higher = stronger / more preferred TF binding; most listed sequences are background and not binding sites). Conditions: protein concentration: 200 nM; construct: GST-full length.
T1 sequence: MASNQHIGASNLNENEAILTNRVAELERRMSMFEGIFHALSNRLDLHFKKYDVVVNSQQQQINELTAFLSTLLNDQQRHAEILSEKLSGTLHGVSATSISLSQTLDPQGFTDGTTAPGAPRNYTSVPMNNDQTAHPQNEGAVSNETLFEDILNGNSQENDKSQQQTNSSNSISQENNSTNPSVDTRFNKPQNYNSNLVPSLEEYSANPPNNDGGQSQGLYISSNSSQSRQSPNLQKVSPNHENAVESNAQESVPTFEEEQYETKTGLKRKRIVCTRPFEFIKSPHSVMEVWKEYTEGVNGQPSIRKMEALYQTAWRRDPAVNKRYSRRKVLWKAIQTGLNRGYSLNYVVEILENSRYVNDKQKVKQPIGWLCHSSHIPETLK
Outline: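 Detection of bound protein used fluorescent anti-GST, with scans normalised by masliner. The proteins were GST-tagged yeast transcription factors applied at about 100-200 nM to universal all-10-mer Agilent arrays made double-stranded by primer extension. Each ungapped eight-base word, pooled with its reverse complement, was scored with an E-score from the Universal PBM Analysis Suite.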

Sequence | PBM E-score
CTACCCGA | -0.0469
AAAAGTTC | 0.142
GGTACCAA | 0.0165
ATTTTCTA | 0.279
AAACTCTG | 0.253
CGGGCACC | -0.217
CCCTTGCG | -0.22
TATACCCA | -0.089
ATGCGTAA | 0.039
CGCAAGTC | -0.0106
AGTGTATC | 0.0379
AGGGTCGG | -0.0831
CGGGTATA | 0.181
AGAGCACT | -0.0658
CATAAGGG | -0.127
CCGCTGGC | -0.164
GAAACACC | -0.05
AGCCTATA | 0.0926
GCCCACTA | -0.101
AGTCCCCG | -0.0625
AGTGAGAT | -0.092
AATTGATC | -0.0771

Sequence | PBM E-score
GGATCTAC | -0.126
ATACAAGA | 0.0344
AACTGACC | 0.0313
CGATGTAA | -0.00414
CTCCATCC | -0.246
AACAACCA | 0.19
GGTATGGA | 0.0803
CATCACGG | -0.0528
ACGCGTAG | 0.052
GACTAGGC | -0.0873
CTAAGCAC | 0.00334
CCCAATGA | -0.113
AAGGTGCT | 0.00429
TCGAAAGA | 0.048
CTCCCTTA | -0.0722
CCCATGTC | 0.316
CGGGCCAC | -0.219
CCATCCTA | -0.0356
ACTAGTGA | -0.00819
ATTAACCC | 0.156
TAGAATCA | -0.00648
AGTAGCGC | -0.0883

Sequence | PBM E-score
GCTTGGAC | 0.22
GGTCGCCA | -0.287
GCAGCCGC | -0.211
CTAAATTA | 0.144
AAAACTTG | 0.138
GCCCAAGC | -0.135
CACGGGAC | 0.0624
AATGCGAC | 0.0714
AGTGATGA | -0.182
GTGAGTTA | -0.0625
CGCGGGAA | 0.0204
GGAGATCA | -0.0623
CAACTGAA | 0.00402
ATGGGGCA | -0.119
CCGCCGAA | 0.0787
ACCCAGGC | -0.0539
CTCGCAAG | -0.0378
AGTATTAA | 0.175
ACATCTAT | 0.266
CTCCAGAA | -0.14
AACAAGTC | 0.103
CTCGGGGA | 0.192

Sequence | PBM E-score
AAGACATA | 0.382
GGACATAA | 0.477
AGCACCCC | -0.278
AGGCTAAC | -0.0211
CGGCGGTC | -0.239
CCTCACTC | -0.0306
CAACACCC | -0.176
GTGTTGTA | -0.0638
CTCGCCCC | -0.302
ATAATAAG | 0.127
TAGTAAGA | 0.153
AACCGGCT | -0.0856
ACGCTGAT | -0.0888
GTAAAATA | 0.0456
ATAGCTTG | -0.0936
CCACCTTA | -0.0186
CAGTGTCC | 0.348
GTCAGGAA | 0.0369
ACGGCGTC | -0.068
CGTATAAC | -0.0592
AATTGGTG | -0.143
GCGTCCAC | -0.0873

Sequence | PBM E-score
CATTTCCA | 0.186
GCTTAAAA | -0.0428
ATACTGCC | 0.0735
AATGAGCG | 0.159
CGATATCC | 0.0314
ACTCACTG | -0.123
AAGTGTAA | -0.0767
CAACGGCC | -0.165
AACAACAA | 0.086
CGTGTGCA | -0.173
AAACGCGC | -0.0897
CACCCGTC | -0.12
CAAGTGGG | -0.0703
ACAGGTAG | -0.0716
AGCAAGGA | -0.072
AAAGTCAT | 0.0858
AGCCATTG | -0.0669
CACGAGGG | -0.233
AGGACTAA | 0.309
AGATCCAC | 0.102
GAGCGGAA | 0.0283
